Test results: the supplement of paper PMC10369915
The list shows a part of the results. Cut-off read from the data, not from the text of the source: active = 3.2 or more and inactive = the rest. Only a few entries rise above the background.

biological target: SHP2 C-SH2 domain E139D; test: enrichment score (SH2-bound / input frequency) (ratio); bacterial display of known human phosphotyrosine sites (pTyr-Var adds point mutants) read by sequencing; higher = stronger binding; tyrosines were phosphorylated by kinases first; conditions: peptide library: pTyr-Var
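Note: displayed peptides selected on beads carrying the immobilized SH2 domain, with library peptides lacking any tyrosine serving as negative controls.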

| Binder | enrichment score |
| --- | --- |
| GKFFQYDTWNQ [IGF2_Y116_K120N] | inactive: 1.26 |
| SGVSYYINLCQ [IGF2R_Y2025_N2020S] | inactive: 0.676 |
| SGVSFYINLCQ [IGF2R_Y2025_N2020S_YF] | inactive: 0.388 |
| YTFNSYYMHWV [IGHV1-46_Y51_T49N] | active: 3.29 |
| FTFNSYFMHWV [IGHV1-46_Y51_T49N_YF] | inactive: 2.71 |
| FTFTSYFMHWV [IGHV1-46_Y51_YF] | inactive: 2.76 |
| RSRRSYSCQVM [IGLL1_Y192] | inactive: 0.299 |
| GDPTEYFSTAI [IGSF22_Y501_YF] | inactive: 0.705 |
| KRLDGYVLEGW [IGSF9_Y656_R661W] | inactive: 0.755 |
| LEQQKYTVTID [IKBKB_Y199_V203I] | inactive: 0.621 |
| AQADIYKADFQ [IKBKG_Y308] | inactive: 0.671 |
| KYVVVYFREID [IL17RB_Y447] | active: 3.97 |
| KFVVVYFREID [IL17RB_Y447_YF] | inactive: 2.82 |
| DTKDDYSALSV [IL17RB_Y457_N458S] | inactive: 0.607 |
| VMSGPYELKAL [IL1B_Y140] | inactive: 0.71 |
| TFHNTYHSQMR [IL1RAPL1_Y615] | inactive: 1.34 |
| STLEVYSCHPP [IL21R_Y317] | inactive: 0.643 |
| STLEVYRCHPP [IL21R_Y317_S318R] | inactive: 0.758 |
| YLTSSYINIST [IL23R_Y178] | inactive: 2.64 |

biological target: SHP2 C-SH2 domain wild-type; test: as above; conditions: peptide library: pTyr-Var

| Binder | enrichment score |
| --- | --- |
| GKFFQYDTWNQ [IGF2_Y116_K120N] | inactive: 1.17 |
| SGVSYYINLCQ [IGF2R_Y2025_N2020S] | inactive: 0.853 |
| SGVSFYINLCQ [IGF2R_Y2025_N2020S_YF] | inactive: 2.62 |
| YTFNSYYMHWV [IGHV1-46_Y51_T49N] | inactive: 3.12 |
| FTFNSYFMHWV [IGHV1-46_Y51_T49N_YF] | inactive: 2.39 |
| FTFTSYFMHWV [IGHV1-46_Y51_YF] | inactive: 2.16 |
| RSRRSYSCQVM [IGLL1_Y192] | inactive: 0.176 |
| GDPTEYFSTAI [IGSF22_Y501_YF] | inactive: 0.626 |
| KRLDGYVLEGW [IGSF9_Y656_R661W] | inactive: 0.748 |
| LEQQKYTVTID [IKBKB_Y199_V203I] | inactive: 0.836 |
| AQADIYKADFQ [IKBKG_Y308] | inactive: 0.952 |
| KYVVVYFREID [IL17RB_Y447] | active: 4.57 |
| KFVVVYFREID [IL17RB_Y447_YF] | inactive: 2.38 |
| DTKDDYSALSV [IL17RB_Y457_N458S] | inactive: 0.581 |
| VMSGPYELKAL [IL1B_Y140] | inactive: 0.741 |
| TFHNTYHSQMR [IL1RAPL1_Y615] | inactive: 1.28 |
| STLEVYSCHPP [IL21R_Y317] | inactive: 1.03 |
| STLEVYRCHPP [IL21R_Y317_S318R] | inactive: 0.923 |
| YLTSSYINIST [IL23R_Y178] | active: 4.07 |

biological target: SHP2 N-SH2 domain L43F; test: as above; conditions: peptide library: pTyr-Var

| Binder | enrichment score |
| --- | --- |
| GKFFQYDTWNQ [IGF2_Y116_K120N] | inactive: 1.25 |
| SGVSYYINLCQ [IGF2R_Y2025_N2020S] | inactive: 0.689 |
| SGVSFYINLCQ [IGF2R_Y2025_N2020S_YF] | inactive: 1.85 |
| YTFNSYYMHWV [IGHV1-46_Y51_T49N] | inactive: 3.12 |
| FTFNSYFMHWV [IGHV1-46_Y51_T49N_YF] | inactive: 3.02 |
| FTFTSYFMHWV [IGHV1-46_Y51_YF] | inactive: 2.46 |
| RSRRSYSCQVM [IGLL1_Y192] | inactive: 0.131 |
| GDPTEYFSTAI [IGSF22_Y501_YF] | inactive: 0.566 |
| KRLDGYVLEGW [IGSF9_Y656_R661W] | inactive: 0.876 |
| LEQQKYTVTID [IKBKB_Y199_V203I] | inactive: 1.03 |
| AQADIYKADFQ [IKBKG_Y308] | inactive: 0.805 |
| KYVVVYFREID [IL17RB_Y447] | active: 8.22 |
| KFVVVYFREID [IL17RB_Y447_YF] | inactive: 2.61 |
| DTKDDYSALSV [IL17RB_Y457_N458S] | inactive: 0.617 |
| VMSGPYELKAL [IL1B_Y140] | inactive: 0.856 |
| TFHNTYHSQMR [IL1RAPL1_Y615] | inactive: 1.39 |
| STLEVYSCHPP [IL21R_Y317] | inactive: 0.621 |
| STLEVYRCHPP [IL21R_Y317_S318R] | inactive: 0.981 |
| YLTSSYINIST [IL23R_Y178] | inactive: 3.18 |

biological target: SHP2 N-SH2 domain T42A; test: as above; conditions: peptide library: pTyr-Var

| Binder | enrichment score |
| --- | --- |
| GKFFQYDTWNQ [IGF2_Y116_K120N] | inactive: 0.973 |
| SGVSYYINLCQ [IGF2R_Y2025_N2020S] | inactive: 0.487 |
| SGVSFYINLCQ [IGF2R_Y2025_N2020S_YF] | inactive: 0.858 |
| YTFNSYYMHWV [IGHV1-46_Y51_T49N] | inactive: 2.74 |
| FTFNSYFMHWV [IGHV1-46_Y51_T49N_YF] | inactive: 2.23 |
| FTFTSYFMHWV [IGHV1-46_Y51_YF] | inactive: 1.85 |
| RSRRSYSCQVM [IGLL1_Y192] | inactive: 0.171 |
| GDPTEYFSTAI [IGSF22_Y501_YF] | inactive: 0.633 |
| KRLDGYVLEGW [IGSF9_Y656_R661W] | inactive: 0.798 |
| LEQQKYTVTID [IKBKB_Y199_V203I] | inactive: 0.476 |
| AQADIYKADFQ [IKBKG_Y308] | inactive: 0.611 |
| KYVVVYFREID [IL17RB_Y447] | active: 7.58 |
| KFVVVYFREID [IL17RB_Y447_YF] | inactive: 1.9 |
| DTKDDYSALSV [IL17RB_Y457_N458S] | inactive: 0.434 |
| VMSGPYELKAL [IL1B_Y140] | inactive: 0.64 |
| TFHNTYHSQMR [IL1RAPL1_Y615] | inactive: 1.22 |
| STLEVYSCHPP [IL21R_Y317] | inactive: 0.509 |
| STLEVYRCHPP [IL21R_Y317_S318R] | inactive: 0.715 |
| YLTSSYINIST [IL23R_Y178] | active: 7.95 |

biological target: SHP2 N-SH2 domain T52S; test: as above; conditions: peptide library: pTyr-Var

| Binder | enrichment score |
| --- | --- |
| GKFFQYDTWNQ [IGF2_Y116_K120N] | inactive: 1.55 |
| SGVSYYINLCQ [IGF2R_Y2025_N2020S] | inactive: 0.583 |
| SGVSFYINLCQ [IGF2R_Y2025_N2020S_YF] | inactive: 0.909 |
| YTFNSYYMHWV [IGHV1-46_Y51_T49N] | inactive: 3.02 |
| FTFNSYFMHWV [IGHV1-46_Y51_T49N_YF] | inactive: 2.32 |
| FTFTSYFMHWV [IGHV1-46_Y51_YF] | inactive: 2.73 |
| RSRRSYSCQVM [IGLL1_Y192] | inactive: 0.169 |
| GDPTEYFSTAI [IGSF22_Y501_YF] | inactive: 0.56 |
| KRLDGYVLEGW [IGSF9_Y656_R661W] | inactive: 0.834 |
| LEQQKYTVTID [IKBKB_Y199_V203I] | inactive: 0.617 |
| AQADIYKADFQ [IKBKG_Y308] | inactive: 0.75 |
| KYVVVYFREID [IL17RB_Y447] | active: 10.2 |
| KFVVVYFREID [IL17RB_Y447_YF] | inactive: 2.73 |
| DTKDDYSALSV [IL17RB_Y457_N458S] | inactive: 0.505 |
| VMSGPYELKAL [IL1B_Y140] | inactive: 0.621 |
| TFHNTYHSQMR [IL1RAPL1_Y615] | inactive: 1.4 |
| STLEVYSCHPP [IL21R_Y317] | inactive: 0.594 |
| STLEVYRCHPP [IL21R_Y317_S318R] | inactive: 0.744 |
| YLTSSYINIST [IL23R_Y178] | active: 3.73 |

biological target: SHP2 N-SH2 domain wild-type; test: as above; conditions: peptide library: pTyr-Var

| Binder | enrichment score |
| --- | --- |
| GKFFQYDTWNQ [IGF2_Y116_K120N] | inactive: 1.11 |
| SGVSYYINLCQ [IGF2R_Y2025_N2020S] | inactive: 0.82 |
| SGVSFYINLCQ [IGF2R_Y2025_N2020S_YF] | active: 4.43 |
| YTFNSYYMHWV [IGHV1-46_Y51_T49N] | inactive: 3.14 |
| FTFNSYFMHWV [IGHV1-46_Y51_T49N_YF] | inactive: 2.61 |
| FTFTSYFMHWV [IGHV1-46_Y51_YF] | inactive: 2.81 |
| RSRRSYSCQVM [IGLL1_Y192] | inactive: 0.302 |
| GDPTEYFSTAI [IGSF22_Y501_YF] | inactive: 1.08 |
| KRLDGYVLEGW [IGSF9_Y656_R661W] | inactive: 0.811 |
| LEQQKYTVTID [IKBKB_Y199_V203I] | inactive: 0.611 |
| AQADIYKADFQ [IKBKG_Y308] | inactive: 0.775 |
| KYVVVYFREID [IL17RB_Y447] | active: 4.07 |
| KFVVVYFREID [IL17RB_Y447_YF] | inactive: 2.17 |
| DTKDDYSALSV [IL17RB_Y457_N458S] | inactive: 0.616 |
| VMSGPYELKAL [IL1B_Y140] | inactive: 0.713 |
| TFHNTYHSQMR [IL1RAPL1_Y615] | inactive: 1.41 |
| STLEVYSCHPP [IL21R_Y317] | inactive: 1.08 |
| STLEVYRCHPP [IL21R_Y317_S318R] | inactive: 0.941 |
| YLTSSYINIST [IL23R_Y178] | inactive: 2.22 |
